Test results reported in the CheMixHub viscosity set.
Further values from the same series stand in other lists.

Assay: xn = mol fraction of the nth substance listed

COCCO + CCCO
298.15 K, 101.33 kPa
Details	viscosity [mPa·s]
x1 = 0.0767	1.821
x1 = 0.0973	1.792
x1 = 0.1162	1.767
x1 = 0.1639	1.713
x1 = 0.2144	1.666
x1 = 0.2667	1.624
x1 = 0.3227	1.589
x1 = 0.3699	1.567
x1 = 0.4118	1.548
x1 = 0.4575	1.532
x1 = 0.4938	1.521
x1 = 0.5359	1.51
x1 = 0.5856	1.503
x1 = 0.6298	1.497
x1 = 0.6793	1.494
x1 = 0.7347	1.493
x1 = 0.7779	1.494
x1 = 0.8231	1.497
x1 = 0.8729	1.502
x1 = 0.9153	1.507
x1 = 0.9597	1.52
x2 = 0.0192	1.525

COCCO + O
viscosity [mPa·s]
Details	293.15 K	303.15 K	308.15 K	313.15 K	323.15 K
101 kPa, x1 = 0.01004	1.14	0.894	–	0.727	0.596
101 kPa, x1 = 0.03021	1.45	1.1	–	0.878	0.707
101 kPa, x1 = 0.05009	1.74	1.29	–	1.018	0.811
101 kPa, x1 = 0.09213	2.35	1.71	–	1.3	1.02
101 kPa, x1 = 0.1367	2.85	2.05	–	1.55	1.16
101 kPa, x1 = 0.1909	3.32	2.35	–	1.76	1.3
101 kPa, x1 = 0.2619	3.5	2.51	–	1.91	1.4
101 kPa, x1 = 0.3559	3.54	2.53	–	1.92	1.44
101 kPa, x1 = 0.4857	3.18	2.34	–	1.8	1.37
101 kPa, x1 = 0.5709	2.92	2.18	–	1.69	1.31
101 kPa, x1 = 0.679	2.59	1.96	–	1.55	–
101 kPa, x1 = 0.7516	2.39	–	–	1.45	1.17
101 kPa, x1 = 0.8458	2.16	1.64	–	1.34	1.09
101 kPa, x1 = 0.9167	1.98	1.53	–	1.26	1.03
101.33 kPa, x1 = 0.4974	–	–	2.14	–	–
101.33 kPa, x1 = 0.5691	–	–	2.01	–	–
101.33 kPa, x1 = 0.6414	–	–	1.878	–	–
101.33 kPa, x1 = 0.6928	–	–	1.787	–	–
101.33 kPa, x1 = 0.7288	–	–	1.724	–	–
101.33 kPa, x1 = 0.768	–	–	1.658	–	–
101.33 kPa, x1 = 0.9214	–	–	1.423	–	–
